Results on 44 compounds are retold here after PMC4336329 (PLoS ONE, 2015).

Molecules are shown by their SMILES. Out of some 310,000 compounds screened, about 14,000 (4.5%) showed an effect of 50% or more. The effect is printed as a negative number. Some of the results follow.
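Also: peak tail current of the secondary pulse compared with the same well before compound.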

For this experiment, the target named is human ether-à-go-go-related gene (hERG) potassium channel (human, UniProt Q12809). The experiment in a line: primary screen, population patch clamp on CHO cells stably expressing hERG.
Sequence of human ether-à-go-go-related gene (hERG) potassium channel (Q12809 whole entry, looked up): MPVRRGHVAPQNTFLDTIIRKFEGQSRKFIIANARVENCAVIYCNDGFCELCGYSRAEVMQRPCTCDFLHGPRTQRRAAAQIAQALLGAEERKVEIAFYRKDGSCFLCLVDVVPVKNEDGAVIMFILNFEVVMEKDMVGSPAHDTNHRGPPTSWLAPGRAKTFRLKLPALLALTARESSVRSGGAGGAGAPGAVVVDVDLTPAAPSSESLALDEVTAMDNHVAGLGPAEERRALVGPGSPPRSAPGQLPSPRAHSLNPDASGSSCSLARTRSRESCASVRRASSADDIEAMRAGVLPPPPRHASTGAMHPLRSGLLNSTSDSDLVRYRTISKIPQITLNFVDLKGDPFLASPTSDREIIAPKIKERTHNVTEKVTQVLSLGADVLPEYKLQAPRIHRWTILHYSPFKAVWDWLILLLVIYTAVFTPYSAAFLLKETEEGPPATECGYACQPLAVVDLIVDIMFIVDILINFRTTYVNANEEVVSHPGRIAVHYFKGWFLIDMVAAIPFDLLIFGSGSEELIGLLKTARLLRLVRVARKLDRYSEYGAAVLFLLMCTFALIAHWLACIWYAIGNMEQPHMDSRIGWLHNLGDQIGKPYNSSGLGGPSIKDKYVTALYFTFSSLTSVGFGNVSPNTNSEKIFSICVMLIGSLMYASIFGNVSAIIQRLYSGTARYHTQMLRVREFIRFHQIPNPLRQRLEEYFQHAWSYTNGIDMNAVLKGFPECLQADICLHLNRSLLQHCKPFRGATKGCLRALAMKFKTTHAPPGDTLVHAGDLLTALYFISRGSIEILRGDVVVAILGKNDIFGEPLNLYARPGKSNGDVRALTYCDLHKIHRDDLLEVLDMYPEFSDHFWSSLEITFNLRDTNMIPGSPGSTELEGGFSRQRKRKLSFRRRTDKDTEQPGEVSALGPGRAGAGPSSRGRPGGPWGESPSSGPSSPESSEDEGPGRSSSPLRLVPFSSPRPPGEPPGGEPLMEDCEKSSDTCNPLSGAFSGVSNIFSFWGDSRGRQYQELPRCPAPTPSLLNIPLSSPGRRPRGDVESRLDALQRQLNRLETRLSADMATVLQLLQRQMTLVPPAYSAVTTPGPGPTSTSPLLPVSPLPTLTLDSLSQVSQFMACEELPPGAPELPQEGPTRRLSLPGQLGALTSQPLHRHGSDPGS
As to `CCN(Cc1ccccc1)C(c1cccs1)c1nnnn1C1CCCCC1` (centres unmarked), the “hERG current change (%, negative = inhibition) at 10uM” value is on record as -1.66%.

In the case of `COc1cccc(NC(=O)c2ccccc2-c2nc(-c3ccc(F)cc3)no2)c1`, the “hERG current change (%, negative = inhibition) at 10uM” value was 8.36%. Next, `O=C(CC1C(=O)NCCN1Cc1ccccc1C(F)(F)F)NC1CCC1` (centres unmarked): 15.2%. As for `CCC(C)C(NC(=O)c1ccccc1)C(=O)Nc1ccc(S(=O)(=O)Nc2cc(C)nc(C)n2)cc1` (centres unmarked), the “hERG current change (%, negative = inhibition) at 10uM” value worked out at 8.24%. With `COc1ccc(CC(=O)O/N=C(\N)c2ccncc2)cc1` the figure was -2.59%. For `CCn1cc(C(=O)N2CCCC2)c(=O)c2cc(S(=O)(=O)N3CC(C)CC(C)C3)ccc21` (centres unmarked), the “hERG current change (%, negative = inhibition) at 10uM” value is listed as 6.43%. Next, `Cc1ccc2[nH]c(=O)c(CC(=O)O)c(-c3ccccc3)c2c1`: 17.7%; `COc1cccc(OCc2cc(C(=O)N3CCN(C4CCCC4)CC3)no2)c1`: -21.3%. With `NC(=S)NC(=O)/C=C/c1ccccc1`, the “hERG current change (%, negative = inhibition) at 10uM” value amounted to 13.1%. Turning to `C[C@H](C(=O)O)c1ccc(-c2ccccc2)c(F)c1`, the “hERG current change (%, negative = inhibition) at 10uM” value is on record as 9.43%.

Turning to `C[C@H](NC(=O)c1cc2cc(Cl)ccc2n1C)C(=O)N[C@@H](C(=O)O)c1ccccc1`, the “hERG current change (%, negative = inhibition) at 10uM” value was found to be 13.4%. Next, `Cc1[nH]c2ccc(C(=O)NCCN3CCOCC3)cc2c1C`: 15%; `O=C(NC(Cc1ccccc1)C(=O)O)/C(=C/c1ccc(F)cc1)NC(=O)c1ccccc1` (centres unmarked): 8.36%. With `O=C(Cn1nc(-c2nn(CC(=O)c3ccccc3)c3[n+]2CCCCC3)[n+]2c1CCCCC2)c1ccccc1.[Br-]` the figure was 12.8%; with `Cc1onc(-c2ccccc2)c1C(=O)N/N=C/C(Br)=C/c1ccccc1`, -5.21%; with `CCOC(=O)NCc1ccc(S(=O)(=O)Nc2ccc(C)cc2)cc1`, -14.6%. For `COc1ccc2oc(C(=O)NCC3CCCO3)c(C)c2c1` (centres unmarked), the “hERG current change (%, negative = inhibition) at 10uM” value is recorded as 14.2%.

For `COc1ccc(S(=O)(=O)N2CCOCC2)cc1C(=O)Nc1cc(C)on1`, the “hERG current change (%, negative = inhibition) at 10uM” value is recorded as 2.19%. With `CCC(C)[C@H](NC(=O)Nc1ccc(C)cc1C)C(=O)O` (some centres unmarked) the figure was -17.1%; with `CCc1nc(SCC(=O)c2ccc(C)c(C)c2)n[nH]1`, 4.1%; with `Cc1csc(NC(=O)c2nc3nc(C)cc(C)n3n2)n1`, 0.212%. `CNc1nn(-c2cccc(Cl)c2)nc1N`: the “hERG current change (%, negative = inhibition) at 10uM” value was -5.64%. Next, `CN(C)c1ccc(/C(=N\O)c2ccccc2)cc1`: -9.94%; `COc1ccc(C(=O)n2nc(-c3ccc(OC)cc3)nc2N)cc1`: -3.32%. Next, `Cc1ccc(C)c(S(=O)(=O)N2CCN(C(=O)c3cccn3C)CC2)c1`: -1.44%; `Cc1ccc2nc(-c3ccccc3)c(CC(=O)O)c(C(=O)O)c2c1`: 18.2%. Next, `O=C(O)CCN1C(=O)C2C3C=CC(C2C1=O)C1C(=O)N(CCC(=O)O)C(=O)C31` (centres unmarked): 1.36%; `CC(=O)C1=C(O)C(=O)N(c2ccc(Br)cc2)C1c1ccc([N+](=O)[O-])cc1` (centres unmarked): 7.07%. Consider `Cc1ccc(NC(=O)Cn2c([N+](=O)[O-])cnc2C)cc1Cl`, for which the “hERG current change (%, negative = inhibition) at 10uM” value was determined as 10.4%. On to `Cn1c(SCC(=O)Nc2ncc(C(F)(F)F)cc2Cl)nnc1-c1ccc(Cl)cc1`, for which the “hERG current change (%, negative = inhibition) at 10uM” value was -30.8%. Take `CCS(=O)(=O)N1CCCC(C(=O)Oc2ccc(Br)cc2)C1` (centres unmarked): the “hERG current change (%, negative = inhibition) at 10uM” value is reported as -20.6%. With `CC1=CC(C)(C)Nc2ccc(OC(=O)CN3C(=O)CCC3=O)cc21` the figure was 2.04%; with `CCOc1ccc(Br)cc1CN(CC)CC.Cl`, -27.4%. Next, `COC(=O)c1ccc(CN2CCC(Oc3ccc(C(=O)N4CCCCC4)cc3)CC2)cc1`: -51.7%; `CC(=O)c1c(C)[nH]c(C(=O)NCc2ccc(C)cc2)c1C`: 10.1%. Regarding `CCn1c(SCc2nc3ccccc3c(=O)[nH]2)nc2ccccc2c1=O`, the “hERG current change (%, negative = inhibition) at 10uM” value is given as -5.61%. As for `COc1ccccc1NS(=O)(=O)c1cccc(NC(=O)CCNC(=O)c2ccccc2OC)c1`, the “hERG current change (%, negative = inhibition) at 10uM” value is -33.1%. For the compound `CCOc1ccc(NC(=O)NCCN2CCN(c3ccccc3F)CC2)cc1`, the “hERG current change (%, negative = inhibition) at 10uM” value is -62.3%. With `C=CCC1(Cl)C(=O)C(Cl)=C(N2CCOCC2)C1(OC)OC` (centres unmarked) the figure was 15.1%. As for `COc1cccc(N=Cc2c(O)n(Cc3ccco3)c(=O)[nH]c2=O)c1`, the “hERG current change (%, negative = inhibition) at 10uM” value is reported as 26.6%. With `CCOC(=O)CNc1ncc(C(F)(F)F)cc1Cl` the figure was 3.07%; with `COc1ccc(C2=NO[C@@H]3C(=O)N(C4CCCCC4)C(=O)[C@H]23)cc1OC`, -17.7%. With `CC(C)(C)c1ccc(NC(=O)c2ccc3c(c2)S(=O)(=O)c2ccccc2C3=O)cc1` the figure was 25.5%; with `C/C(CC(=O)Nc1ccc(Cl)cn1)=N\NC(=O)Cc1cccs1`, 4.63%.
